Data: US20030124655A1, “Receptor protein specifically recognizing bacterial dna” (priority 2000, published 2003)

Tests used:
peritoneal macrophages = experiment: Inflammatory cytokine production in peritoneal macrophages (ELISA); details: for production of TNF α, IL-6 and IL-12: macrophages from wild-type mice
[1] = test system: dendritic cells derived from bone marrow; experiment: IL-12 p40 production in bone marrow-derived dendritic cells (ELISA); format: cell-based, mouse; details: dendritic cells from TLR9 knockout mice; 0.1 μM, 2 days
[2] = test system: dendritic cells derived from bone marrow; experiment: Surface molecule expression on dendritic cells (FACS)

Substance: TCC-ATG-ACG-TTC-CTG-ATG-CT (DNA TCCATGACGTTCCTGATGCT; listed as DNA, chemistry not given here) [CpG ODN]
- production of inflammatory cytokines (peritoneal macrophages; macrophages from TLR9 knockout mice (TLR9-/-), even in the presence of IFN γ): did not produce a detectable level of inflammatory cytokines
- production of TNF α, IL-6 and IL-12 (peritoneal macrophages; further stimulation by IFN γ): increases the amount of producing TNF α, IL-6 and IL-12
- production of TNF α, IL-6 and IL-12 (peritoneal macrophages; supernatant, ELISA): produce TNF α, IL-6 and IL-12
- IL-12 p40 production [1]: did not induce the production of IL-12
- expression of CD40, CD80, CD86 and MHC class II on the surface of dendritic cells ([2]; dendritic cells from TLR9 knockout mouse): does not promote the expression of these molecules
- expression of CD40, CD80, CD86 and MHC class II on the surface of dendritic cells ([2]; dendritic cells from wild-type mouse): promotes the expression of CD40, CD80, CD86 and MHC class II
